The record followed here is the supplement of paper PMC11417369.

Some of the results follow.

The subject of this assay is PfAP2-HC AP2 domain (GST-tagged). The assay is described as follows: gcPBM binding intensity (ln(normalized median fluorescence intensity)); higher = stronger DNA binding. Summed up: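 Each value is the highest Masliner-normalised natural-log median intensity across replicate spots of either orientation of a probe. The probes were primer-extended double-stranded 36-bp intergenic genomic sequences on an Agilent 4 × 180k array, alongside negative controls, exposed for 1 h to GST-tagged P. falciparum DNA-binding domains expressed in E. coli. Bound protein was picked up with Alexa488 anti-GST antibody and scanned at 488 nm.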
Regarding “TATTACACACAATATTGTACACATAGGAAAAATATT [XGTACX_site1726]”, the “gcPBM binding intensity (ln)” value turned out to be 9.85.
Take “TTTTTTATTTTTTGTTATATTTATAATAATTTATGA [XGTACX_negctrl_site260]”: the “gcPBM binding intensity (ln)” value turned out to be 9.59.
With ATATATATATATGTAGTGCATTTTATATATAATATT, the “gcPBM binding intensity (ln)” value was determined as 9.76.
Take “TACTTTACACATATTTTTAATTATTCTGAATTCAAA [GTGCAC_negctrl_site253]”: the “gcPBM binding intensity (ln)” value turned out to be 9.51.
“TAAAAGTTCACCTGTACACACATATATATATGTACA [CACACA_site1707]”: the “gcPBM binding intensity (ln)” value turned out to be 9.8.
Under “AAGAAATAAATACATACACACATATATATATATATA [CACACA_site3362]” stands 10.3; under “ATAAGTAATATAATATGTACATATATATATATATAT [XGTACX_site3818]”, 9.93; under “TATATATTGTTATAATGTACATAATATTTTATCTGC [XGTACX_site4983]”, 9.63.
In the case of “ATGCAAAATAAAGAAGCACACAAAAATGAAATATAT [CACACA_site9217]”, the “gcPBM binding intensity (ln)” value came out at 9.86.
In the case of “AGAATAATTTTATCGGTACACACTGTATGCATAATA [CACACA_site374]”, the “gcPBM binding intensity (ln)” value is 9.76.
For the sequence “GGAAATTTCAATATTTGTACATATATATATATATAT [XGTACX_site3222]”, the “gcPBM binding intensity (ln)” value came out at 9.71.
Turning to “TACAGATATTTTATTTCACACATTTTATCATTTTCT [CACACA_site5701]”, the “gcPBM binding intensity (ln)” value was 9.75.
Under “TTCAAAAAAGGAAAGTTGCACTTGATACGCTTATTA [GTGCAC_site9411]” stands 9.39; under “TTCTATATTTCTTTTTGTACATATAAATTCAAATAA [XGTACX_site2476]”, 9.64; under “ATATAAAATAATACATGTACATATTATATATATATA [XGTACX_site1082]”, 9.86.
In the case of “TATATACGCATTTTTATACACACTTGTTTTATAAAA [CACACA_site727]” it was 9.72.
In the case of “ATTTTTTTTTCTTAATGTACATACCAAAAAGAAAGA [XGTACX_site5471]”, the “gcPBM binding intensity (ln)” value is 9.39.
“TATAATATATTTTAATGTACGTACATCCCGATTAAT [XGTACX_site7651]”: the “gcPBM binding intensity (ln)” value worked out at 9.58.
Regarding “TTTGTCTGCATACGCACACACGTGTACCATCTTATG [CACACA_site4784]”, the “gcPBM binding intensity (ln)” value was determined as 10.2.
“TATTAATATATATGTTGTACAAGTTTTTTTTTTTTT [XGTACX_site5865]”: the “gcPBM binding intensity (ln)” value worked out at 9.63.
In the case of “GATAAAATATGTTGCCGTACATATTCATATACTTAA [XGTACX_site4776]” it was 9.67; in that of “AAATATTAAATGACAAAAAAAAAAAAAAAAGGGGTT [CACACA_negctrl_site951]”, 9.85.
Under “TTCTTTATTTTTTCTACACACATTATATATTCAAAG [CACACA_site5866]” stands 9.88.
In the case of “TATTTTGAAAATAAAAGTACAAATTTTATATTTAAA [XGTACX_site3238]” it was 9.07.
As for “TATTTATATTCATAATGTACATTCAATTATTGTTTT [XGTACX_site4191]”, the “gcPBM binding intensity (ln)” value was determined as 10.1.
Regarding “TTTCCATTTTCTCTATGTACATAAAAATGAGATAAA [XGTACX_site5689]”, the “gcPBM binding intensity (ln)” value is 9.31.
In the case of “CACACGCACGGACACACACACAAAAAAAAAAAGAAA [CACACA_site6378]” it was 10.3; in that of “AAGACCATATGAATAATGCACACGTTTTAAAATATT [CACACA_site2323]”, 9.76.
For the sequence “AAATAAATCTTATGCACACAAATAATTAATGAAACA [CACACA_site5011]”, the “gcPBM binding intensity (ln)” value was determined as 9.89.
In the case of “TCTTTGTACTTTCACATGTACACCCAAATGGAAATT [CACACA_negctrl_site1442]” it was 9.68; in that of “ATATTTATGGAATATACACACATGTATAATTACATA [CACACA_site7045]”, 9.72; in that of “AGGACTAATATTTGAACACACATATAATAAATACAT [CACACA_site6068]”, 9.96.
Under “GTTTGGTGGTGTTTTGGTACGTACGGGGGTGTATGT [XGTACX_site1211]” stands 10.1; under “TGGAAAATAAAGTACGCACACAAAAATTCTCTTCAT [CACACA_site2327]”, 10.2.
In the case of “TTCAAACATATTAATTGTACATACAACAAAACCATG [XGTACX_site5149]” it was 9.58.
As to “AATATATTTTAGAGTTTTATATATTTTATGCATATA [GTGCAC_negctrl_site710]”, the “gcPBM binding intensity (ln)” value was 9.61.
Regarding “ATATTATTTTATGCTACACACATTTTCTCTTATAAA [CACACA_site943]”, the “gcPBM binding intensity (ln)” value was determined as 9.89.
In the case of “GGAATTTTTATTCGAAGTACTGTTGTGAGTAATAAA [XGTACX_site8599]” it was 9.53.
In the case of “TAAATGTTAAAATTCACACAAATATGTGCGGAATAT [CACACA_site5055]” it was 9.61; in that of “TTTGACTAAATTAAATATTAAAGTATGGATTATTCT [CACACA_negctrl_site833]”, 9.4.
Under “ACCCATTTGATAATAATGCACACCACATATATTTAT [CACACA_site3061]” stands 10.1; under “TGCAAGGAACAACACACACACACATAAATGTATATA [CACACA_site8149]”, 11.4; under “ATATATAATATATACACACACATGTATATATAAATA [CACACA_site1968]”, 9.95.
Take “AAAAAAAAAAAACACACACACACATTCAATATAAAA [CACACA_site40]”: the “gcPBM binding intensity (ln)” value is 10.4.
